Measured values published in the supplement of paper PMC4967469.
IC50 is the fitted dose that halves viability relative to control wells, and lower means more sensitive; fits outside the tested doses are given as limits. AUC, from the same fit, is the share of area under the viability curve across the 256-fold dose range; the more sensitive the line, the further below 1. For some of these results: An inferred top dose is not printed in the source and was worked back from the curve model. For some of these results: Drugs with an entry number were screened twice under separate entries, and the two screens often disagree.

Columns and labels:
Assay in all cases: Viability of human cancer cell lines after 72 h of drug (GDSC screen)
Pyrimethamine = compound: CCc1nc(N)nc(N)c1-c1ccc(Cl)cc1 [Pyrimethamine]; details: top dose 20 µM; top dose inferred
Description: (§1)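 Human cancer cell lines in 384-well plates, medium with 10% serum, drug for 72 h over a 256-fold dose range (nine 2-fold or five 4-fold steps up to the top dose). Adherent lines were fixed and stained with the nucleic acid dye Syto60, suspension lines read with resazurin; signal relative to control wells, capped at 0 and 100%. One two-parameter sigmoid per drug and line, fitted in a mixed model over all curves with the slope shared within a line.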

AZD-0530 = compound: CN1CCN(CCOc2cc(OC3CCOCC3)c3c(Nc4c(Cl)ccc5c4OCO5)ncnc3c2)CC1 [AZD-0530]; details: top dose 2 µM
Description: as §1

TPCA-1 = compound: NC(=O)Nc1sc(-c2ccc(F)cc2)cc1C(N)=O [TPCA-1]; details: top dose 20 µM
Description: as §1

Epothilone B = compound: C/C(=C\c1csc(C)n1)[C@@H]1C[C@@H]2O[C@]2(C)CCC[C@H](C)[C@H](O)[C@@H](C)C(=O)C(C)(C)[C@@H](O)CC(=O)O1 [Epothilone B]; details: top dose 0.032 µM; top dose inferred
Description: as §1

PHA-793887 = compound: CC(C)CC(=O)Nc1n[nH]c2c1CN(C(=O)C1CCN(C)CC1)C2(C)C [PHA-793887]; details: top dose 10.24 µM
Description: as §1

Y-39983 = compound: C[C@@H](N)c1ccc(C(=O)Nc2ccnc3[nH]ccc23)cc1 [Y-39983]; details: top dose 20 µM; top dose inferred
Description: as §1

PLX4720 = compound: CCCS(=O)(=O)Nc1ccc(F)c(C(=O)c2c[nH]c3ncc(Cl)cc23)c1F [PLX4720]; details: top dose 10 µM
Description: as §1

[1] = screen: GDSC drug entry 1371, top dose inferred

| Cell Line | AUC (Pyrimethamine) | IC50 (Pyrimethamine) [µM] | AUC (AZD-0530) | IC50 (AZD-0530) [µM] | AUC (TPCA-1) | IC50 (TPCA-1) [µM] | AUC (Epothilone B) | IC50 (Epothilone B) [µM] | AUC (PHA-793887) | IC50 (PHA-793887) [µM] | AUC (Y-39983) | IC50 (Y-39983) [µM] | AUC (PLX4720; screen: GDSC drug entry 1036) | IC50 (PLX4720; screen: GDSC drug entry 1036) [µM] | AUC (PLX4720; [1]) | IC50 (PLX4720; [1]) [µM] |
| --- | --- | --- | --- | --- | --- | --- | --- | --- | --- | --- | --- | --- | --- | --- | --- | --- |
| D-283MED (medulloblastoma, adherent) | 0.988 | > 20 | 0.968 | > 2 | 0.991 | > 20 | 0.945 | > 0.032 | 0.991 | > 10.2 | 0.991 | > 20 | 0.934 | > 10 | 0.986 | > 10 |
| DEL (lymphoid neoplasm, suspension) | 0.719 | 4.44 | 0.985 | > 2 | 0.624 | 2.53 | 0.581 | 0.00316 | 0.297 | 0.198 | 0.804 | 7.6 | 0.994 | > 10 | 0.974 | > 10 |
| DG-75 (Burkitt lymphoma, suspension) | 0.862 | 17.4 | 0.987 | > 2 | 0.893 | > 20 | 0.909 | > 0.032 | 0.78 | 4.26 | 0.961 | > 20 | 0.817 | 5.68 | 0.94 | > 10 |
| DJM-1 (skin, adherent) | 0.984 | > 20 | 0.988 | > 2 | 0.887 | > 20 | 0.581 | 0.00332 | 0.949 | > 10.2 | 0.972 | > 20 | 0.943 | > 10 | 0.987 | > 10 |
| DMS-79 (small cell lung carcinoma, suspension) | 0.928 | > 20 | 0.986 | > 2 | 0.97 | > 20 | 0.939 | > 0.032 | 0.98 | > 10.2 | 0.965 | > 20 | 0.978 | > 10 | 0.98 | > 10 |
| DMS-114 (small cell lung carcinoma, adherent) | 0.945 | > 20 | 0.976 | > 2 | 0.858 | > 20 | 0.919 | > 0.032 | 0.778 | 4.79 | 0.985 | > 20 | 0.984 | > 10 | 0.977 | > 10 |
| DND-41 (T-cell leukaemia, suspension) | 0.769 | 6.71 | 0.978 | > 2 | 0.308 | 0.389 | 0.882 | 0.0269 | 0.388 | 0.327 | 0.813 | 9.26 | 0.989 | > 10 | 0.975 | > 10 |
| DSH1 (bladder, adherent) | 0.711 | 4.79 | 0.972 | > 2 | 0.905 | > 20 | 0.952 | > 0.032 | 0.932 | > 10.2 | 0.989 | > 20 | 0.966 | > 10 | 0.988 | > 10 |
| DU-4475 (breast, suspension) | 0.887 | 15.1 | 0.992 | > 2 | 0.855 | 11.5 | 0.515 | 0.00218 | 0.626 | 1.32 | 0.924 | > 20 | 0.438 | 0.437 | 0.563 | 0.899 |
| Daudi (Burkitt lymphoma, suspension) | 0.924 | > 20 | 0.968 | > 2 | 0.852 | 12.5 | 0.839 | 0.0179 | 0.596 | 1.13 | 0.911 | > 20 | 0.985 | > 10 | 0.99 | > 10 |
| EB-3 (Burkitt lymphoma, suspension) | 0.98 | > 20 | 0.931 | > 2 | 0.881 | > 20 | 0.899 | > 0.032 | 0.633 | 1.59 | 0.974 | > 20 | 0.981 | > 10 | 0.943 | > 10 |
| EC-GI-10 (oesophagus, adherent) | 0.98 | > 20 | 0.979 | > 2 | 0.92 | > 20 | 0.894 | > 0.032 | 0.989 | > 10.2 | 0.937 | > 20 | 0.983 | > 10 | 0.936 | > 10 |
| EJM (lymphoid neoplasm, semi-adherent) | 0.988 | > 20 | 0.986 | > 2 | 0.611 | 2.4 | 0.79 | 0.0118 | 0.679 | 1.84 | 0.936 | > 20 | 0.988 | > 10 | 0.992 | > 10 |
| EKVX (lung adenocarcinoma, adherent) | 0.914 | > 20 | 0.91 | > 2 | 0.932 | > 20 | 0.85 | > 0.032 | 0.934 | > 10.2 | 0.911 | > 20 | 0.957 | > 10 | 0.895 | > 10 |
| ES1 (Ewing sarcoma, adherent) | 0.803 | 9.77 | 0.972 | > 2 | 0.743 | 6.1 | 0.3 | 0.000552 | 0.422 | 0.393 | 0.88 | > 20 | 0.971 | > 10 | 0.962 | > 10 |
| ES3 (Ewing sarcoma, adherent) | 0.925 | > 20 | 0.942 | > 2 | 0.723 | 5.59 | 0.737 | 0.00989 | 0.613 | 1.33 | 0.914 | > 20 | 0.954 | > 10 | 0.943 | > 10 |
